# Results as given in the supplement of paper PMC9588766.
# Structures can show the parent of a compound that is named as a salt. Whole data set: some 1,900 compounds, median “cell viability of compound + 1 nM pemigatinib relative to pemigatinib-only (DMSO) wells” near 0.95, cut for the lowest 2% near 0.22. The list shows a part of the results.
# Test system: PDC-DUC18828
# Experiment: cell viability of compound + 1 nM pemigatinib relative to pemigatinib-only (DMSO) wells (fraction); PDC-DUC18828 is a patient-derived cholangiocarcinoma cell line; higher = less growth inhibition
# Details: first compound 1 µM; pemigatinib concentration 1 nM; 72 h
# Method: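 Selleck Bioactive library screen in the patient-derived FGFR2 fusion-positive ICC cell line PDC-DUC18828 (500 cells/well). Each compound was tested at 1 uM with 1 nM pemigatinib, in triplicate, for 72 h. Viability was read by CellTiter-Glo and normalised to plate DMSO controls. Value is the paper's averaged normalised viability.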
row,Structure (SMILES),cell viability
1,C[C@]12CC[C@@H]3c4ccc(O)cc4CC[C@H]3[C@@H]1CC[C@@H]2OC(=O)CCC1CCCC1 [Estradiol Cypionate] + CCN1C(=O)N(c2c(F)c(OC)cc(OC)c2F)Cc2cnc3[nH]c(CN4CCOCC4)cc3c21 [pemigatinib],0.869
2,CC(C)N(CCCNC(=O)Nc1ccc(C(C)(C)C)cc1)C[C@H]1O[C@@H](n2ccc3c(N)ncnc32)[C@H](O)[C@@H]1O + CCN1C(=O)N(c2c(F)c(OC)cc(OC)c2F)Cc2cnc3[nH]c(CN4CCOCC4)cc3c21 [pemigatinib],0.914
3,CNC(CC(=O)O)C(=O)O [NMDA (N-Methyl-D-aspartic acid)] + CCN1C(=O)N(c2c(F)c(OC)cc(OC)c2F)Cc2cnc3[nH]c(CN4CCOCC4)cc3c21 [pemigatinib],0.966
4,C[C@H](NC(=O)Cc1cc(F)cc(F)c1)C(=O)N[C@H](C(=O)OC(C)(C)C)c1ccccc1 + CCN1C(=O)N(c2c(F)c(OC)cc(OC)c2F)Cc2cnc3[nH]c(CN4CCOCC4)cc3c21 [pemigatinib],1.02
5,Cc1cc(Nc2ccc(NC(=O)c3ccc(Nc4ccnc5ccccc45)cc3)cc2)nc(N)n1 + CCN1C(=O)N(c2c(F)c(OC)cc(OC)c2F)Cc2cnc3[nH]c(CN4CCOCC4)cc3c21 [pemigatinib],0.965
6,CN1C2=CC(=O)/C(=N\NC(N)=O)C=C2CC1S(=O)(=O)O (configuration not stated) [Carbazochrome sodium sulfonate (AC-17)] + CCN1C(=O)N(c2c(F)c(OC)cc(OC)c2F)Cc2cnc3[nH]c(CN4CCOCC4)cc3c21 [pemigatinib],0.918
7,O=C1Cc2cc(CCN3CCN(c4nsc5ccccc45)CC3)c(Cl)cc2N1 [Ziprasidone HCl] + CCN1C(=O)N(c2c(F)c(OC)cc(OC)c2F)Cc2cnc3[nH]c(CN4CCOCC4)cc3c21 [pemigatinib],0.956
8,CC(C)/N=c1\cc2n(-c3ccc(Cl)cc3)c3ccccc3nc-2cc1Nc1ccc(Cl)cc1 [Clofazimine] + CCN1C(=O)N(c2c(F)c(OC)cc(OC)c2F)Cc2cnc3[nH]c(CN4CCOCC4)cc3c21 [pemigatinib],0.907
9,O=C(Cc1ccc(-c2ccc(OCCN3CCOCC3)cc2)cn1)NCc1ccccc1 + CCN1C(=O)N(c2c(F)c(OC)cc(OC)c2F)Cc2cnc3[nH]c(CN4CCOCC4)cc3c21 [pemigatinib],0.233
10,Nc1ncn([C@H]2C[C@H](O)[C@@H](CO)O2)c(=O)n1 [Decitabine] + CCN1C(=O)N(c2c(F)c(OC)cc(OC)c2F)Cc2cnc3[nH]c(CN4CCOCC4)cc3c21 [pemigatinib],0.838
11,O=c1cc(-c2ccc(O)c(O)c2)oc2cc(O)cc(O)c12 [Luteolin] + CCN1C(=O)N(c2c(F)c(OC)cc(OC)c2F)Cc2cnc3[nH]c(CN4CCOCC4)cc3c21 [pemigatinib],1.01
12,CC(=O)Nc1ccc(NC(=S)NC(=O)c2ccc(C(C)(C)C)cc2)cc1 [Tenovin-1] + CCN1C(=O)N(c2c(F)c(OC)cc(OC)c2F)Cc2cnc3[nH]c(CN4CCOCC4)cc3c21 [pemigatinib],0.987
13,CCOc1cc(C(=O)N2CCC(N3CCN(C)CC3)CC2)ccc1Nc1ncc2c(n1)N(C1CCCC1)c1ccccc1C(=O)N2C + CCN1C(=O)N(c2c(F)c(OC)cc(OC)c2F)Cc2cnc3[nH]c(CN4CCOCC4)cc3c21 [pemigatinib],0.958
14,O=C(NOCCO)c1ccc2cncn2c1Nc1ccc(I)cc1F + CCN1C(=O)N(c2c(F)c(OC)cc(OC)c2F)Cc2cnc3[nH]c(CN4CCOCC4)cc3c21 [pemigatinib],0.512
15,NC(=O)Cc1cccc(C(=O)c2ccccc2)c1N [Nepafenac] + CCN1C(=O)N(c2c(F)c(OC)cc(OC)c2F)Cc2cnc3[nH]c(CN4CCOCC4)cc3c21 [pemigatinib],0.951
16,C[C@H]1COC2=C1C(=O)C(=O)c1c2ccc2c1CCCC2(C)C [Cryptotanshinone] + CCN1C(=O)N(c2c(F)c(OC)cc(OC)c2F)Cc2cnc3[nH]c(CN4CCOCC4)cc3c21 [pemigatinib],0.877
17,CN(C)CC[C@H](CSc1ccccc1)Nc1ccc(S(=O)(=O)NC(=O)c2ccc(N3CCN(Cc4ccccc4-c4ccc(Cl)cc4)CC3)cc2)cc1[N+](=O)[O-] + CCN1C(=O)N(c2c(F)c(OC)cc(OC)c2F)Cc2cnc3[nH]c(CN4CCOCC4)cc3c21 [pemigatinib],0.742
18,CC[C@H]1OC(=O)[C@H](C)[C@@H](O[C@H]2C[C@@](C)(OC)[C@@H](O)[C@H](C)O2)[C@H](C)[C@@H](O[C@@H]2O[C@H](C)C[C@H](N(C)C)[C@H]2O)[C@](C)(OC)C[C@@H](C)C(=O)[C@H](C)[C@@H](O)[C@]1(C)O [Clarithromycin] + CCN1C(=O)N(c2c(F)c(OC)cc(OC)c2F)Cc2cnc3[nH]c(CN4CCOCC4)cc3c21 [pemigatinib],0.946
19,O=[N+]([O-])c1ccc2c(c1)S(=O)(=O)C=C2 [Stattic] + CCN1C(=O)N(c2c(F)c(OC)cc(OC)c2F)Cc2cnc3[nH]c(CN4CCOCC4)cc3c21 [pemigatinib],0.715

row,Structure (SMILES),cell viability
1,CCCCCCCCC/C(=C\C1=C(C)C(=O)C(OC)=C(OC)C1=O)C(=O)O + CCN1C(=O)N(c2c(F)c(OC)cc(OC)c2F)Cc2cnc3[nH]c(CN4CCOCC4)cc3c21 [pemigatinib],0.992
2,N=C(N)NC(=O)c1nc(Cl)c(N)nc1N [Amiloride HCl] + CCN1C(=O)N(c2c(F)c(OC)cc(OC)c2F)Cc2cnc3[nH]c(CN4CCOCC4)cc3c21 [pemigatinib],0.967
3,CN(C)C(=O)COC(=O)Cc1ccc(OC(=O)c2ccc(NC(=N)N)cc2)cc1 [Camostat Mesilate] + CCN1C(=O)N(c2c(F)c(OC)cc(OC)c2F)Cc2cnc3[nH]c(CN4CCOCC4)cc3c21 [pemigatinib],0.959
4,CC(C)C[C@@H]1NC(=O)[C@@H](C(C)C)NC(=O)[C@@H]2CCCN2C(=O)[C@@H](CC(=O)O)NC(=O)[C@@H](Cc2c[nH]c3ccccc23)NC1=O + CCN1C(=O)N(c2c(F)c(OC)cc(OC)c2F)Cc2cnc3[nH]c(CN4CCOCC4)cc3c21 [pemigatinib],0.969
5,CCCCOc1c(C(=O)c2c(F)cc(C)cc2F)c[nH]c2nncc1-2 + CCN1C(=O)N(c2c(F)c(OC)cc(OC)c2F)Cc2cnc3[nH]c(CN4CCOCC4)cc3c21 [pemigatinib],0.881
6,Nc1ccccc1NC(=O)c1ccc(CNC(=O)OCc2cccnc2)cc1 [Entinostat (MS-275)] + CCN1C(=O)N(c2c(F)c(OC)cc(OC)c2F)Cc2cnc3[nH]c(CN4CCOCC4)cc3c21 [pemigatinib],0.982
7,CCc1cncnc1N1CCN(Cc2nc3ccc(C(F)(F)F)cc3[nH]2)CC1 + CCN1C(=O)N(c2c(F)c(OC)cc(OC)c2F)Cc2cnc3[nH]c(CN4CCOCC4)cc3c21 [pemigatinib],1.05
8,COc1cc(C(=O)NS(=O)(=O)c2ccccc2C)ccc1Cc1cn(C)c2ccc(NC(=O)OC3CCCC3)cc12 [Zafirlukast] + CCN1C(=O)N(c2c(F)c(OC)cc(OC)c2F)Cc2cnc3[nH]c(CN4CCOCC4)cc3c21 [pemigatinib],1.03
9,CN[C@H]1CN(c2ccc3c(=O)c(C(=O)O)cn(-c4nccs4)c3n2)C[C@@H]1OC [Voreloxin (SNS-595)] + CCN1C(=O)N(c2c(F)c(OC)cc(OC)c2F)Cc2cnc3[nH]c(CN4CCOCC4)cc3c21 [pemigatinib],0.652
10,Cc1cc(C2CCCCC2)n(O)c(=O)c1 [Ciclopirox ethanolamine] + CCN1C(=O)N(c2c(F)c(OC)cc(OC)c2F)Cc2cnc3[nH]c(CN4CCOCC4)cc3c21 [pemigatinib],0.339
11,Cc1cc(C2CCCCC2)n(O)c(=O)c1 [Ciclopirox] + CCN1C(=O)N(c2c(F)c(OC)cc(OC)c2F)Cc2cnc3[nH]c(CN4CCOCC4)cc3c21 [pemigatinib],0.554
12,CC1=C(C(=O)OC(C)C)C(c2cccc([N+](=O)[O-])c2)C(C(=O)OC2CN(C(c3ccccc3)c3ccccc3)C2)=C(N)N1 (configuration not stated) [Azelnidipine] + CCN1C(=O)N(c2c(F)c(OC)cc(OC)c2F)Cc2cnc3[nH]c(CN4CCOCC4)cc3c21 [pemigatinib],0.996
13,CCOc1cc([C@@H](CS(C)(=O)=O)N2C(=O)c3cccc(NC(C)=O)c3C2=O)ccc1OC + CCN1C(=O)N(c2c(F)c(OC)cc(OC)c2F)Cc2cnc3[nH]c(CN4CCOCC4)cc3c21 [pemigatinib],0.956
14,NS(=O)(=O)c1cc(C(=O)O)c(NCc2ccco2)cc1Cl [Furosemide] + CCN1C(=O)N(c2c(F)c(OC)cc(OC)c2F)Cc2cnc3[nH]c(CN4CCOCC4)cc3c21 [pemigatinib],1.11
15,O=C(O)c1cc(=O)c2ccccc2o1 [Chromocarb] + CCN1C(=O)N(c2c(F)c(OC)cc(OC)c2F)Cc2cnc3[nH]c(CN4CCOCC4)cc3c21 [pemigatinib],1.03
16,Cc1ccc(S(=O)(=O)n2c(N)nc3ccccc32)cc1 [ML130 (Nodinitib-1)] + CCN1C(=O)N(c2c(F)c(OC)cc(OC)c2F)Cc2cnc3[nH]c(CN4CCOCC4)cc3c21 [pemigatinib],0.857
17,O=C(NCc1ccncc1)C12CC3CC(C1)CC(c1ccc(Cl)cc1)(C3)C2 + CCN1C(=O)N(c2c(F)c(OC)cc(OC)c2F)Cc2cnc3[nH]c(CN4CCOCC4)cc3c21 [pemigatinib],0.951
18,CCOC(=O)[C@H](CCc1ccccc1)N[C@@H](C)C(=O)N1[C@H](C(=O)O)C[C@@H]2CCC[C@@H]21 [Ramipril] + CCN1C(=O)N(c2c(F)c(OC)cc(OC)c2F)Cc2cnc3[nH]c(CN4CCOCC4)cc3c21 [pemigatinib],0.949
